Measurements published in PubChem BioAssay AID485313 (National Center for Advancing Translational Sciences (NCATS), 2010).
The campaign covered roughly 320,000 compounds. About 7,600 (2.4%) were called active. Inconclusive means that the source gave no clear call. Such entries were picked first, then a sample of the others. The call rests on the fitted dose curve; in most records, active means well fitted activation curve with a large enough effect; inconclusive means small, poorly fitted or top-dose-only effect; inactive means no such curve, though single readings can be large or run the other way. Potencies beside an inconclusive call are fits to weak or partial responses and may not hold up.

Assay: qHTS Assay for NPC1 Promoter Activators; further: nearly all actives have a fitted effect of over 60% in size
Settings: Huh7 NPC1 promoter luciferase reporter, 24 h; series mostly up to 9.22 µM
Description: NIH Chemical Genomics Center [NCGC] NIH Molecular Libraries Probe Production centers Network [MLPCN] MLPCN Grant: MH089375-01A1 Assay Submitter (PI): Yiannis A. Ioannou NCGC Assay Overview: Niemann Pick Type C (NPC) is a rare neurodegenerative lipidosis that is characterized by lipid storage in the endosomal/lysosomal system. Treatment modalities for this devastating disease are currently non-existent due to the severe obstacles associated with accessing the central nervous system with proteins or genes. The majority of mutations causing NPC disease are missense mutations that are distributed throughout the length of the NPC1 protein, with the most prevalent being the I1061T allele. Although NPC1 mutant proteins may be functional, they are typically trapped in the ER due to misfolding. […] We have developed and optimized a cell based luciferase reporter assay in 1536 well format for the identification of up-regulators of the mutant NPC1 promoter.
The NPC1 promoter is cloned in front of the luciferase reporter gene, therefore NPC promoter activation results in luciferase expression. Frozen stock of the NPC1 promoter transfected Huh7 cells were obtained from the laboratory of Dr. Yiannis Ioannou (The Mount Sinai School of Medicine, New York, NY). Cells were propagated and maintained at NCGC in medium containing RPMI-1640 supplemented with 10% FBS, 2mM L-glutamine, and 50ug/ml penicillin/streptomycin. Cells were harvested in and plated for assays in OP-MEM I reduced-serum medium supplemented with 10% FBS. The Amplite luciferase reporter gene assay kit was purchased from ABD Bioquest and prepared/stored according to manufacturers recommendations. qHTS Assay Setup: 1.#Dispensed 5ul of Huh7 cells stably expressing NPC1-luciferase at a density of 1500 cells per well 1536-well plates. 2.#Incubate cells at 37C, 5% CO2, and 95% humidity for 2 hours. 3.#Transferred 23nl per well of compound in DMSO solution. 4.#Incubated at 37C, 5% CO2, and 95% humidity for 24 hours. 5.#Dispensed 3ul per well of Amplite reagent(ABD Bioquest) per well. 6.#Incubate at ambient for 10 minutes. 7.#Read using the luminescence protocol on the ViewLux plate reader (Perkin Elmer).
Potency means the concentration at half of the fitted maximal effect; tags describe the fitted curve by direction and shape.

Potency, inactive:
CCCCN(C)CC(O)Cn1cc(/C=C/C(=O)c2ccc(C)cc2)c2ccccc21 (centres undefined), Cc1ccc(SCCN2CCC(O)CCC2=O)cc1 (centres undefined), CCN(CC)S(=O)(=O)c1ccc(NC(=S)NC(=O)CC(C)C)cc1, CCOc1cc(N2CCOCC2)c(OCC)cc1NC(=O)COC(=O)CCOc1cc(C)ccc1C, CCCCn1c(O)c(N=Nc2ccccn2)c2ccccc21, COc1ccc(C)cc1NC(=O)c1cccc(-c2ccc(OC(C)=O)cc2)c1, O=C(N/N=C1\CC(c2ccccc2)Oc2ccccc21)c1ccc(O)cc1 (centres undefined), COC(=O)NC(C)N1C(=O)C2C3C=CC(C3)C2C1=O (centres undefined), CCOC(=O)c1ccc(NC(=O)c2c(C)[nH]c(C(=O)OCC)c2C)cc1, CCc1nc2sc3c(=O)[nH]cnc3c2c2c1CSC(C)(C)C2, Cc1ccc(S(=O)(=O)N2CC(C)C(=O)CC2C)cc1 (centres undefined), Nc1nc(N)c2c(n1)CCCC2, CC1(C)CC(=O)C(N=Nc2ccc(C(F)(F)F)cc2[N+](=O)[O-])=C(O)C1, O=C(O)/C=C/C(=O)Nc1ccc(OC(F)F)cc1, CCOC(=O)N1CCN(C(=O)CN(C)S(=O)(=O)c2ccc(Cl)cc2)CC1, O=C(CSc1nc(=O)n(CCCN2CCOCC2)c2c1CCCC2)Nc1ccc(Cl)cc1, CCOc1ccccc1NC(=O)C1CCN(c2nc(-c3ccc(OC)cc3)no2)CC1, O=C(Nc1ccccc1)Nc1nnc(CSCc2ccccc2Cl)s1, CCOC(=O)Cc1ccc(NC(=O)c2ccccc2Br)cc1, COc1ccc(OCc2n(CC(=O)OC3CC(C)CCC3C(C)C)c3ccccc3[n+]2C)cc1 (centres undefined), COc1ccccc1NC(=O)C(=O)N/N=C/c1cccs1, CSc1ccccc1-c1nnc(-c2ccccc2)o1, COc1cc(-c2csc(N3CCOCC3)n2)cc(OC)c1OC, CC(O)C(C(=O)OCc1ccc([N+](=O)[O-])cc1)N1C(=O)c2ccccc2C1=O (centres undefined), N#CCSc1nc(-c2ccccc2)nc2ccccc12, O=C(c1cc(S(=O)(=O)N2CCN(c3ccccc3)CC2)ccc1Cl)N1CCCCCCC1, CC1(c2ccccc2)NC(=O)N(CC(=O)N2CCN(S(=O)(=O)c3ccccc3[N+](=O)[O-])CC2)C1=O (centres undefined)

Potency, active:
NC(=O)c1ccccc1N/C=C/C(=O)c1cccs1 1.78 µM, CCOC(=O)N1CCN(C(=O)c2ccc3oc(CCCc4ccccc4)nc3c2)CC1 1.58 µM, CCc1ccc(-c2cn3c(n2)SCC3)cc1 1.58 µM, c1nc(Nc2ccc(N3CCOCC3)cc2)c2ccsc2n1 3.16 µM, O=C(CSC(=S)N1CCCCC1)c1ccccc1 0.501 µM, CC1=NN(C(N)=S)C(=O)C1N=Nc1ccc(C)c(Br)c1 (centres undefined) 1.78 µM, Clc1ccc2[nH]c(-c3ccccc3)cc2c1 3.16 µM, COc1ccc(/C=N/Nc2snc(SC)c2C#N)cc1OC 2.82 µM, CC(C)CC(=O)N/C(N)=N/c1nc2ccccc2o1 1.58 µM

Potency, inconclusive:
O=C(NC(=S)Nc1ccc(CN2CCOCC2)cc1)c1cccc(F)c1 1.26 µM [activator, partial curve], S=C(NCCc1ccccc1)Nc1ccccc1 3.98 µM [activator, single point], Clc1ccc(CSc2cc3c(nn2)-c2ccccc2CC3)cc1 5.62 µM [activator, single point], CCN(CC(=O)Nc1c(F)cccc1F)C(=O)/C=C/c1ccc(C)cc1 3.98 µM [activator, partial curve], O[C@@H]1COC(Nc2ccc(N=Nc3ccccc3)cc2)C[C@@H]1O (some centres undefined) 3.98 µM [activator, single point], Cc1ccc(Cn2nc(-c3ccccc3)nc2-c2ccccc2)cc1 3.16 µM [activator, single point], O=C(c1cc(COc2ccc(F)cc2Cl)on1)N1C[C@H]2CC[C@H]1C2 3.16 µM [activator, partial curve], COc1cccc(N2CCN(C(=O)c3ccc4nc(N5CCCCC5)sc4c3)CC2)c1 1.78 µM [activator, partial curve], O=C(Cc1ccccc1)Nc1nnc(-c2cccs2)s1 3.98 µM [activator, partial curve], COC(=O)C1C(=O)c2c([nH]c(C(=O)OCCSC)c2C)CC1C (centres undefined) 3.16 µM [activator, single point], CC(C)Sc1nc(N)nc(-c2cccs2)c1C#N 3.98 µM [activator, single point], Fc1ccc(-c2csc(-c3ccc(C4SCCS4)cc3)n2)cc1F 2.82 µM [activator, partial curve], NC(=O)c1c(NC(=O)c2cccs2)sc2c1CCCCCC2 4.47 µM [activator, partial curve], CCN(CC)C(=O)Oc1ccc2c(c1)O/C(=C\c1ccco1)C2=O 5.62 µM [activator, single point], Nc1cc(N)nc(SCc2cccc(F)c2)n1 2.82 µM [activator, partial curve], COC(=O)c1ccc(NC(=O)c2ccco2)cc1 2.51 µM [activator, partial curve], O=C(c1cc(-c2ccccc2O)on1)N1CCOCC1 3.55 µM [activator, single point], O=C(N/N=C/C=C\c1ccco1)c1ccccn1 2.51 µM [activator, partial curve], COc1ccc(Oc2nccc(-c3ccccc3)c2C#N)cc1 2.51 µM [activator, partial curve], Cc1cccc(Nc2ccc(NCc3ccccc3)nn2)c1 3.16 µM [activator, single point], COc1ccc(NC(=O)CCSc2nc(C)cs2)cc1 3.55 µM [activator, single point], O=C(Nc1nnc(CCc2ccccc2)s1)c1ccccc1 5.62 µM [activator, single point], O=C(NNC(=O)c1cnccc1C(F)(F)F)c1ccc(Cl)cc1 1.26 µM [activator, single point], CCCOC(=O)c1ccc(NC(=O)Cc2cccs2)cc1 2.82 µM [activator, single point], COc1ccc(NC(=O)C(=O)c2cn(CC(=O)N3CCCC3)c3ccccc23)c(OC)c1 3.55 µM [activator, single point], CC(C)(C)c1nnc(SCC(=O)Nc2ccc(N3CCCCC3)cc2)n1N 3.55 µM [activator, partial curve], Cc1cc(OCc2cn3cccnc3n2)ccc1Cl 3.55 µM [activator, single point], CC1CCC(NC(=O)c2ccc(NS(=O)(=O)c3ccc4[nH]c(=O)[nH]c4c3)cc2)CC1 (centres undefined) 3.16 µM [activator, single point], Cc1cccc(C(=O)Nc2sc3c(c2C(=O)O)CCC3)c1 2.51 µM [activator, partial curve], CN(/N=C/c1ccccc1O)C(=S)c1ccccc1 3.16 µM [activator, partial curve], O=C(CSc1cccs1)Nc1ccc2ccccc2c1 2.82 µM [activator, partial curve], CC(C)Oc1cccc(C(=O)NC(=S)Nc2ccccc2)c1 3.98 µM [activator, single point], Cc1cc(C)cc(C(=O)NC(=S)Nc2ccc3c(c2)OCCO3)c1 3.98 µM [activator, single point], O=C(c1cnn(-c2ccccc2)c1)c1ccc2ccccc2c1O 5.62 µM [activator, single point], Cc1csc(N/N=C/c2ccc([N+](=O)[O-])cc2)n1 5.62 µM [activator, single point], Cc1cc(C)c([N+](=O)[O-])cc1-c1ccc(/C=N/c2c(-c3ccco3)nc3ccccn23)o1 5.62 µM [activator, single point], CN(C)c1ccc(NC(=O)/C=C/c2ccccc2Cl)cc1 3.55 µM [activator, single point], CC(C)(C)C(=O)CSc1nnc(Nc2ccccc2)s1 2.51 µM [activator, partial curve], Cc1cccc(/C=N/N2CCN(c3ccccc3)CC2)c1 3.55 µM [activator, partial curve], COc1ccc(CNc2ccc(-c3ccc(OC)cc3)nn2)cc1 3.55 µM [activator, single point], Cc1cnn(C(=S)NCCc2ccccc2)c1 3.98 µM [activator, partial curve], Cc1ccc(C(=O)O)cc1NC(=S)NC(=O)c1ccc(-c2ccccc2)cc1 3.16 µM [activator, single point], COc1cccc(NC(=O)Nc2cccc(C(=O)O)c2)c1 0.316 µM [activator, full curve]
